Assay results: US20060003399A1, “High throughput actin polymerization assay” (Cytokinetics, Inc., priority 2004, published 2006)

B1: GST-105WASP: fusion protein with WASP deletion mutant domain (SEQ ID NO:18) (protein)
chain: [letters of about 200 residues left out]SDLVPRPWSNQTSLYKKAGSAAAPFTENLYFQGLVYSTPTPFFHTFAGDDCQAGLNFADEDEAQAFRALVQEKIQKRNQRQSGDRRQLPPPPTPANEERRGGLPPLPLHPGGDQGGPPVGPLSLGLATVDIQNPDITSSRYRGLPAPGPSPADKKRSGKKKISKADIGAPSGFKHVSHVGWDPQNGFDVNNLDPDLRSLFSRAGISEAQLTDAETSKLIYDFIEDQGGLEAVRQEMRRQEPLPPPPPPSRGGNQLPRPPIVGGNKGRSGPLPPVPLGIAPPPPTPRGPPPPGRGGPPPPPPPATGRSGPLPPPPPGAGGPPMPPPPPPPPPPPSSGNGPAPPPLPPALVPAGGLAPGGGRGALLDQIRQGIQLNKTPGAPESSALQPPPQSSEGLVGALMHVMQKRSRAIHSSDEGEDQAGDEDEDDEWDD
modifications: GST-105WASP fusion protein
B2: GST-tev-98N-WASP: fusion protein with N-WASP deletion mutant domain (SEQ ID NO:22) (protein)
chain: [letters of about 200 residues left out]SDLVPRPWSNQTSLYKKAGSAAAPFTENLYFQGLVYSTPTPFFHTFAGDDCQAGLNFADEDEAQAFRALVQEKIQKRNQRQSGDRRQLPPPPTPANEERRGGLPPLPLHPGGDQGGPPVGPLSLGLATVDIQNPDITSSRYRGLPAPGPSPADKKRSGKKKISKADIGAPSGFKHVSHVGWDPQNGFDVNNLDPDLRSLFSRAGISEAQLTDAETSKLIYDFIEDQGGLEAVRQEMRRQEPLPPPPPPSRGGNQLPRPPIVGGNKGRSGPLPPVPLGIAPPPPTPRGPPPPGRGGPPPPPPPATGRSGPLPPPPPGAGGPPMPPPPPPPPPPPSSGNGPAPPPLPPALVPAGGLAPGGGRGALLDQIRQGIQLNKTPGAPESSALQPPPQSSEGLVGALMHVMQKRSRAIHSSDEGEDQAGDEDEDDEWDD
modifications: GST-tev-98N-WASP fusion protein

Molecular target: Arp2/3
Test: Activities of WASP/N-WASP proteins (Table 4)
Format: biochemical
Text: The term “variant” or “analogue” generally refers to proteins that are functional equivalents to a native sequence that have similar amino acid sequences and retain, to some extent, one of the activities of the corresponding native protein. Variants/analogues include fragments that retain one or more activities of the corresponding native protein. Examples of WASP and N-WASP activity include, but are not limited to, capacity to: 1) bind Arp2/3 and actin; 2) activate the actin nucleation activity of Arp2/3 (descriptions of assays to detect nucleation activity are provided below); 3) bind an upstream regulator; 4) be regulated by one or more upstream regulators, thereby rendering the WASP or N-WASP protein able to activate the nucleation activity of Arp2/3; and 5) bind downstream regulators initiating signal transduction cascades. Some of the WASP and N-WASP proteins that are provided are able to recapitulate the full activity of WASP or N-WASP, which means that these proteins have all five of the activities just listed. […]
A third class of NPF proteins that can be utilized in some assays include WASP, N-WASP and SCAR proteins that include the WH1 domain but in which the PolyPro region is (e.g., deleted). A fourth class of NPF proteins that can be utilized in some assays are WASP, N-WASP and SCAR deletion mutants in which the PolyPro region is maintained but an N-terminal region (e.g., WH1 domain) is at least partially removed. Some proteins in this class are ones that include the B, CRIB/GBD (WASP and N-WASP), PolyPro and VCA domains, but in which some or all of the WH1 has been removed. One specific example is 98N-WASP, which includes amino acids 98-501 of SEQ ID NO:4. Another specific example is the 105WASP protein, which includes amino acids 105-501 of SEQ ID NO:2 (see FIG. 4B).
As indicated in this table, specific examples of fusion proteins that can be utilized include those that include a segment that encodes full-length WASP or N-WASP, including: Myc-WASP-TAP (SEQ ID NO:14); and Myc-N-WASP-TAP (SEQ ID NO: 16). Examples of fusion proteins that include a WASP or N-WASP deletion mutant domain include: GST-105WASP (SEQ ID NO:18); Myc-105WASP-TAP (SEQ ID NO:20); GST-tev-98N-WASP (SEQ ID NO:22); and Myc-98N-WASP-TAP (SEQ ID NO:24). The TAP tag in these particular fusion proteins has the general structure CBP-tev-ProtA (SEQ ID NO:36). Fusion proteins such as those listed in Table 4 can in some instances be utilized directly, or after one or both of the C- and N-terminal tags are removed. For example, the fusion proteins listed in Table 4 as having a TAP tag can be used once the TAP tag has been cleaved off and/or after the C-terminal tag has been removed.

Molecule	Activate Arp2/3?	Regulated By Which Upstream Regulators?
B1	Yes	Cdc42, PIP2, Nck and Rac1
B2	Yes	Cdc42, PIP2, Nck and Rac1
